Some of the results follow.
Each compound was assayed on T1, C. trachomatis L2/434/Bu expressing GFP (CTL2-GFP). Settings: total inclusion area; 28.5 h, 10 µM; inhibitor.
T1 construct: L2/434/Bu GFP intracellular growth in HeLa cells
Set-up: species or system HeLa; C. trachomatis total inclusion area by high-content imaging, normalised to DMSO
Method in brief: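 High-content imaging followed the bulk GFP/resorufin measurement: fixed, Hoechst-stained cells were scored for GFP inclusions and host nuclei per well. Total inclusion area and count served as growth proxies, nuclei number as the viability proxy. MIC calculation matched the bulk assay.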

SMILES	% of control remaining
CCCN1C(=O)N(CO)C2C1N(CO)C(=O)N2CCC (stereo not shown) [CBK263882]	102.021
O=C(Nc1cncc(OC2CCNCC2)n1)c1cnc2ccccc2c1 [CBK036377T]	90.1101
Cc1ccc(Nc2nc(O)ns2)cc1 [CBK026011]	40.8342
CCCOC1CCCN(c2nccc(-c3cc(C(=O)O)ccn3)n2)C1 (stereo not shown) [CBK307703]	42.0869
CSCCN1CCC2(CC1)CN(CCO)c1ccccc12 [CBK126771]	90.0118
O=C(NC1CC2(CCOCC2)Oc2ccccc21)c1ccco1 (stereo not shown) [CBK285378]	95.6884
CCOc1ccc(CNc2ccc(C3c4ccsc4CCN3C(=O)COC)cc2)cc1 (stereo not shown) [CBK286453]	91.3651
C[C@H](Cn1nc2c(cc1=O)CCCCC2)NC(=O)C1CCCC1 [CBK284546]	115.016
COc1ccc(-c2ccc3nnc(SCc4cccnc4)n3n2)cc1 [CBK287680]	105.201
O=C(c1c[nH]nc1-c1cc2ccccc2o1)N1CCC(O)(C(F)(F)F)C1 (stereo not shown) [CBK305549]	60.5671
COC(=O)c1ccc(N/C(C)=C/C(=O)c2ccc(C)o2)cc1 [CBK267057]	91.1377
CC1CCc2c(sc(NC(=O)c3ccn(C)n3)c2C#N)C1 (stereo not shown) [CBK304682]	42.6572
CC(=O)Nc1ccc(S(=O)(=O)Nc2ccnc(N3CCN4CCCC4C3)n2)cc1 (stereo not shown) [CBK000380C]	91.0598
O=[N+]([O-])c1ccc(N2CCN(S(=O)(=O)c3ccc4ccccc4c3)CC2)cc1 [CBK157773]	89.3071
CCCSc1ncc(Cl)c(C(=O)Nc2ccc(S(=O)(=O)N3CC(C)OC(C)C3)cc2)n1 (stereo not shown) [CBK269055]	90.0603
OC(c1cccs1)C1CCN(Cc2ccc(Cn3cccn3)cc2)CC1 (stereo not shown) [CBK307454]	82.8068
CN(C)C(=O)CN1CCN(C(=O)c2ccccc2C(=O)c2ccc(F)cc2)CC1 [CBK297921]	138.979
NC(=O)C1(N2CCCCC2)CCN(CC(=O)Nc2ccc(Br)cc2)CC1 [CBK268364]	108.214
Fc1cc(Br)ccc1-c1cn(-c2ccc(Oc3ccccc3)cc2)nn1 [CBK113145]	106.196
O=C(CCCC(=O)N1CCCC1)N1CCCC1 [CBK006992]	15.3505
Cc1cc(NC(=O)CNC(=O)c2ccccc2)no1 [CBK073427]	82.7445

SMILES	% of control remaining
O=C(O)c1[nH]c2ccccc2c1C(c1ccc(OC2CCCC2)cc1)c1c(C(=O)O)[nH]c2ccccc12 [CBK267789]	106.286
CCCn1nc(C)c(-c2cncn2CCN(C)C2CCCC2)c1C [CBK281790]	118.9
CCC(CN1CCCC1)n1cncc1-c1cn(C)nc1C (stereo not shown) [CBK281459]	90.8117
COc1cc(Nc2cncc(-c3ccc4ccccc4c3)n2)cc(OC)c1OC [CBK065176]	26.7927
CN(C)CCNCc1ccccc1OC1CCCC1 [CBK278214C]	97.7606
NS(=O)(=O)c1ccc(NC(=S)Nc2nn(Cc3ccc(Cl)cc3Cl)cc2Cl)cc1 [CBK267020]	104.183
CC(=O)c1c(C)oc2ccc(N(C(C)=O)S(=O)(=O)c3ccc(C(=O)O)cc3)cc12 [CBK299790]	104.001
Cc1cc(O)ccc1Nc1cc(-c2ccccc2N(C)C)ncn1 [CBK091051]	59.4056
Cc1ccc(CN(Cc2cncn2C)CC2CCCO2)o1 (stereo not shown) [CBK283272]	97.8101
COc1ccc(-c2c(C)nn(-c3ccc(Cl)nn3)c2C)c(C(=O)O)c1 [CBK005774]	88.8826
CCNC(=O)Nc1ncc(-c2ccc3c(c2)OCCCO3)c2cccnc12 [CBK070634]	101.897
O=C(O)CCc1ccc(-c2cccs2)n1CCOc1ccccc1Cl [CBK267885]	107.726
Nc1ccc(C(=O)Nc2ccc(Nc3cc(-c4cc(C(F)(F)F)cc(C(F)(F)F)c4)ncn3)cc2)cc1 [CBK091091]	144.229
COc1ccc(N2CCN(c3cncc(-c4cccs4)n3)CC2)cc1OC [CBK065687]	75.8841
COc1ccc(N)cc1OCCn1ccnc(N2CCNCC2)c1=O [CBK024211C]	100.356
CCn1nnnc1NCc1ccc(OCc2ccc(F)cc2Cl)c(OC)c1 [CBK268224]	101.804
Cc1ccc(SCCN2CCNCC2)cc1 [CBK266045G]	120.071
COc1ccccc1CC(=O)N(Cc1nc(-c2cccc(C)c2)no1)C(C)C [CBK269345]	77.5466
COC(=O)[C@H]1CN(C(=O)c2cn(C)nc2C)C[C@@H]1c1ccc(F)cc1 [CBK283720]	107.252
CC(C)Nc1cncc(OC2CCN(C)C2)n1 (stereo not shown) [CBK115598]	96.2556
CN(C)CCN(C)Cc1ccc([N+](=O)[O-])cc1 [CBK261728]	89.5346

SMILES	% of control remaining
O=[N+]([O-])c1cccc(-c2noc([C@@H]3C[C@@H](O)CN3C3CCOCC3)n2)c1 [CBK288847]	107.427
O=S(=O)(c1ccc(-c2cncc(-c3ccc(O)cc3)n2)cc1F)N1CCOCC1 [CBK126903]	110.795
S=C(NCCN1CCCCC1)NCc1ccco1 [CBK268171]	125.308
COc1ccccc1-c1nnc(SCC(=O)N2CCN(c3ccccc3)CC2)[nH]1 [CBK270105]	86.9001
CC(C)C1OC(NCc2ccccc2Cl)=NC1=O (stereo not shown) [CBK070344]	103.832
CC(C)CCc1c(O)nc(SCCN(C)C)[nH]c1=O [CBK263382]	75.233
Clc1ncccc1OCCOc1ccccc1 [CBK003888]	86.3849
COc1ccc(-c2c(C)nn3c(=O)c(Cc4ccccc4)c(C)[nH]c23)cc1 [CBK266951]	96.7186
COc1ccccc1C(NC(=O)C1CCN(CCCN2C(=O)CC3CCCCC3C2=O)CC1)c1ccccn1 (stereo not shown) [CBK147940]	98.7364
CCc1c(C)nn(-c2ccccc2Br)c1-c1ccccc1 [CBK016757]	92.4117
Cc1cc2c(cc1C)C(O)CC1(CCN(CC(=O)NC3CCCCC3)CC1)O2 (stereo not shown) [CBK286399]	67.6074
Cn1c(SCC(=O)O)nnc1-c1cc(Br)ccc1O [CBK269150]	84.01
FC(F)(F)Oc1cccc(-c2cncc(NCc3ccncc3)n2)c1 [CBK065926]	105.023
COCc1ccc(C(=O)N2CCC(c3cc4cnccc4[nH]3)CC2)cc1 [CBK283448]	57.0062
COc1cc(C(F)(F)F)c(-c2ncn[nH]2)cn1 [CBK006362]	5.035
Cc1cccn2c(=O)cc(CN3CCC(c4cnn(C)c4)CC3)nc12 [CBK305806]	70.7074
Cc1cc(NC(=O)CN(C)C(=O)c2ccc(-n3cc(Br)cn3)cc2)no1 [CBK305575]	23.4103
COc1ccc(CC(=O)Nc2nc(OCC(F)(F)F)cnc2-c2ccc(Cl)cc2Cl)cc1 [CBK145359]	81.7833
O=c1c2cc(OCc3ccc(Cl)cc3)ccc2nc2n1CCC2 [CBK287977]	98.7041
C/C(=C/C(=O)NCc1ccc(Cl)cc1)C(=O)O [CBK286954]	85.7406
O=S(=O)(NC1CCCCC1Oc1ccccc1)c1ccc(Cl)cc1 (stereo not shown) [CBK264697]	96.9436

SMILES	% of control remaining
OCc1ccc(-c2cc(NCc3cccs3)n3nccc3n2)cc1 [CBK037046]	102.695
O=C1CSC2(C(=O)N(Cc3cccc(C(F)(F)F)c3)c3ccccc32)N1c1ccccc1 (stereo not shown) [CBK092392]	82.3071
N#CCCCN1CCC(Oc2nccnc2OCc2cccc3ccccc23)CC1 [CBK161571]	81.078
COc1ccc2[nH]cc(CCNC(=O)c3ccc([N+](=O)[O-])c(C)c3)c2c1 [CBK269426]	28.1183
COC(=O)C#CCNc1cc(Cl)ccc1Cl [CBK025852]	7.574
CC(C)OCC(O)Cn1c(NC2CCCCC2)nc2c1c(=O)[nH]c(=O)n2C (stereo not shown) [CBK140893]	81.7575
CC(=O)Nc1ccc(N/C=C(/C#N)c2nc(-c3ccc([N+](=O)[O-])cc3)cs2)cc1 [CBK262377]	94.6087
CC(=O)Nc1ccc(OCCO)cc1 [CBK149724]	93.2667
O=C(C1CCC1)N1CC(n2nc(-c3ccccc3)ccc2=O)C1 [CBK284624]	87.6523
CN1C2CCC1CC(OC(=O)CCN1CCOCC1)C2 (stereo not shown) [CBK261465]	83.1105
Cc1nn(Cc2cccc(C(=O)O)c2)c(C)c1Br [CBK286950]	101.682
O=c1c2cc(Cl)ccc2sc2ncccc12 [CBK008118]	61.3255
CC(=O)N[C@H]1[C@H](Oc2ccc3ccccc3c2)O[C@@H]2COC(C)(C)O[C@H]2[C@@H]1O [CBK091644]	89.3739
Cc1cccc(NS(=O)(=O)c2cc(C(=O)NCc3ccccn3)ccc2C)c1 [CBK268767]	95.9744
CCn1nc(C)c(NC(=O)c2ncoc2-c2ccc(F)cc2)c1C [CBK282360]	74.606
Cc1[nH]ncc1CN1CCCC(c2cc3ccccc3cn2)C1 (stereo not shown) [CBK285029]	60.7417
CN1CCC[C@H]1C(=O)Nc1ccc2ncccc2c1 [CBK159825]	103.662
O=C(/C=C/c1ccc(Cl)cc1)Nc1nnn[nH]1 [CBK265468]	114.308
CCOC(=O)c1nc(N)c2c(CC#N)nn(C)c2n1 [CBK023254]	83.8354
